From article PMC12040169 (PLOS Biology, 2025) come the findings set out here.

This is one part of the list.

The subject of the experiment is T1, C. trachomatis L2/434/Bu expressing GFP (CTL2-GFP).
T1 construct: L2/434/Bu GFP intracellular growth in HeLa cells
The arrangement: species or system HeLa; C. trachomatis total inclusion area by high-content imaging, normalised to DMSO. The note with it: total inclusion area; 28.5 h, 10 µM; inhibitor. The method in brief: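 Imaging read-out: GFP inclusions and Hoechst nuclei captured by high-content imaging after fixation. Inclusion area/number = chlamydial growth; nuclei count = host cell viability. MIC calculated per earlier method.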
For the compound `CN1CCc2c(sc3nc(SCC(=O)c4ccccc4)n(-c4ccccc4)c(=O)c23)C1` [CBK262586], the “% of control remaining” value is recorded as 82.996.
For `Cc1noc(C2(O)CCN(Cc3sccc3Cl)C2)n1` (stereo not drawn) [CBK304863] the value was 43.181; for `COC(=O)c1sccc1NC(=O)Cc1ccccc1[N+](=O)[O-]` [CBK268146], 95.29; for `CN1CCCN(Cc2cccc3ccccc23)CC1` [CBK261531], 96.8228.
As to `CN(C)CCN1CCN(c2nc(Br)cn3ccnc23)CC1` [CBK037501], the “% of control remaining” value came out at 112.562.
Turning to `Nc1ncc(-c2ccccc2CO)nc1N1CCN(CCO)CC1` [CBK063404], the “% of control remaining” value was 126.166.
For `O=C(NCCc1cccnc1)Nc1ccc(CN2CCCC2=O)cc1` [CBK306461] the value was 57.6549.
For `Cc1nc(C)n(C2CN(S(=O)(=O)c3ccc4scnc4c3)C2)n1` [CBK305889], the “% of control remaining” value came out at 81.1824.
Next, `Cc1c(NC(=S)NC(=O)C(C)C)cccc1-c1nc2ncccc2o1` [CBK269712]: 85.1065.
For the compound `COc1ccc(CCCC(=O)Nc2ccc(N3CCNCC3)c3ccccc23)cc1OC` [CBK028406T], the “% of control remaining” value came out at 97.0936.
Next, `Cc1cc(NC(=O)CN(C)CC(=O)Nc2ccc(Br)cc2C)no1` [CBK260700]: 49.9271; `O=c1nc(NN=C2CCCCC2)cn[nH]1` [CBK018838]: 91.4051.
For `Cc1nn(C2CCCO2)c(=O)nc1N` (stereo not drawn) [CBK021028] the value was 72.1644.
Next, `Cc1ccc(NC(=S)NCCNc2ccccn2)cc1Cl` [CBK297544]: 110.035.
For the compound `O=C(NCc1ccsc1)NCC1CCN(c2ccncc2)CC1` [CBK306394], the “% of control remaining” value worked out at 76.3905.
Next, `CCCN(CCC)C(=O)Cn1cnc2ccc(Cl)cc2c1=O` [CBK304651]: 44.7988.
Take `Cc1ccccc1Nc1n[nH]c(=S)s1` [CBK015808]: the “% of control remaining” value is recorded as 39.7487.
Next, `COC1CCN(C(=O)OCCc2cccnc2)CC1` [CBK200161]: 87.9845.
For `CC(C)C[C@H](NC(=O)NCCN1CCOCC1)C(=O)O` [CBK286619] the value was 60.2043.
Next, `O=C(C1CCC1)N1CCC(c2onc3c2CCCCC3)CC1` [CBK284496]: 48.5582; `COc1ccc(Sc2nccnc2NC(C)C)cc1OC` [CBK115249]: 91.7431.
As to `COc1ccc(-c2oc3ncn4nc(COc5ccccc5C)nc4c3c2-c2ccc(OC)cc2)cc1` [CBK265283], the “% of control remaining” value stood at 106.498.
Consider `O=C(CSc1nc2ccccc2o1)N1c2ccccc2Sc2ccc(C(F)(F)F)cc21` [CBK018044], for which the “% of control remaining” value is reported as 73.2284.
For `Cc1nc(C2CCCN2C(=O)CC2CCCC2)nc2c1CCCN2Cc1ccccn1` (stereo not drawn) [CBK286252] the value was 109.564; for `O=C(Nc1ccc(F)cc1)N1C2CCC1CC(O)(c1cccnc1)C2` (stereo not drawn) [CBK281946], 81.8491; for `Cn1cncc1C(=O)NCc1ccccc1` [CBK200199], 42.1981.
For `O=C(CC1CCCC1)N1CCC(c2nnc3n2CCCCC3)CC1` [CBK284630] the value was 103.128; for `O=C(Nc1nnc(C2=COCCO2)o1)c1ccc(-c2ccccc2)cc1` [CBK287407], 100.919.
For `CC(C)c1nc(NCCc2nnc3n2CCC3)nc(N(C)C)n1` [CBK306409] the value was 77.0098; for `COc1cc(CNc2ccc(N3CCOCC3)cc2)ccc1OCc1ccc(Cl)cc1Cl` [CBK074516], 71.1047.
For the compound `COC(=O)c1c(C(C)(C)C)c(O)c2ccoc2c1OC` [CBK007577], the “% of control remaining” value is 55.0771.
Next, `Cc1n[nH]c(C)c1CCC(=O)N/N=C/c1ccncc1` [CBK262888]: 106.509; `Cc1cccc(N2NC(=O)/C(=C/c3cccn3-c3ccc(S(N)(=O)=O)cc3)C2=O)c1` [CBK265660]: 98.2425; `CC(Oc1ccc(Cl)cc1Cl)C(=O)NC1CC(C)(C)NC(C)(C)C1` (stereo not drawn) [CBK263951C]: 96.8739.
For `Cc1ccc(-n2nnc(C(=O)N3CCCCC3C(=O)O)c2C)cc1` (stereo not drawn) [CBK304109] the value was 33.2148; for `CCN1C(=O)C2(CC(=O)N(Cc3ccccc3)C2=O)c2cc(Cl)ccc21` (stereo not drawn) [CBK075233], 113.354; for `CCOc1ccc(S(=O)(=O)N2CCCC(C(=O)NCCO)C2)cc1` (stereo not drawn) [CBK269968], 78.197.
Next, `CCc1nc(COC(=O)C2CCN(C(=O)c3ccc(F)cc3)CC2)cs1` [CBK305725]: 61.4333; `COc1ccc(/C=C/C(=O)O)cc1S(=O)(=O)N1CCCC1` [CBK058388]: 121.223.
In the case of `COc1cc2c(=O)n(C)c3nncn3c2cc1OC` [CBK288182], the “% of control remaining” value is 110.574.
Next, `Cc1cccc(C)c1OCC(=O)NC(C)C(=O)O` (stereo not drawn) [CBK287185]: 110.083; `O=C(CSc1nc2[nH]ncc2c(=O)n1-c1ccccc1)Nc1nsc(-c2ccccc2)n1` [CBK266486]: 97.4121.
